# Experimental data taken from the supplement of paper PMC8728848.
# This is one part of the list.
# B1: Sialidase (Vibrio cholerae), P37060 (protein)
# chain: GAMALFDYNATGDTEFDSPAKQGWMQDNTNNGSGVLTNADGMPAWLVQGIGGRAQWTYSLSTNQHAQASSFGWRMTTEMKVLSGGMITNYYANGTQRVLPIISLDSSGNLVVEFEGQTGRTVLATGTAATEYHKFELVFLPGSNPSASFYFDGKLIRDNIQPTASKQNMIVWGNGSSNTDGVAAYRDIKFEIQGDALNGSMALFDYNATGDTEFDSPAKQGWMQDNTNNGSGVLTNADGMPAWLVQGIGGRAQWTYSLSTNQHAQASSFGWRMTTEMKVLSGGMITNYYANGTQRVLPIISLDSSGNLVVEFEGQTGRTVLATGTAATEYHKFELVFLPGSNPSASFYFDGKLIRDNIQPTASKQNMIVWGNGSSNTDGVAAYRDIKFEIQGDLQALGMALFDYNATGDTEFDSPAKQGWMQDNTNNGSGVLTNADGMPAWLVQGIGGRAQWTYSLSTNQHAQASSFGWRMTTEMKVLSGGMITNYYANGTQRVLPIISLDSSGNLVVEFEGQTGRTVLATGTAATEYHKFELVFLPGSNPSASFYFDGKLIRDNIQPTASKQNMIVWGNGSSNTDGVAAYRDIKFEIQGD
# Legend:
# Experiment in all cases: glycan array binding signal (z-score within array); higher = stronger binding
# Settings in all cases: glycan notation: IUPAC condensed, linker removed
# [1] = molecular target: Gal(b1-4)GlcNAc(b1-3)[GlcNAc(b1-6)]Gal(b1-4)GlcNAc
# Summary of the method: (§1)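 Negative Z-scores can be read as non-binding. The Z-score is calculated within each array and then averaged across arrays of one protein sequence at different concentrations or buffers and across linkers. Arrays, 3228 in all, were curated from the Consortium for Functional Glycomics database and kept only where the protein sequence was available.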
# [2] = molecular target: Gal(b1-4)GlcNAc(b1-6)Gal(b1-4)GlcNAc
# Summary of the method: as §1
# [3] = molecular target: Gal(b1-4)GlcNAc(b1-6)Gal(b1-4)GlcNAc(b1-6)GalNAc
# Summary of the method: as §1
# [4] = molecular target: Gal(b1-4)GlcNAc(b1-6)GalNAc
# Summary of the method: as §1
# [5] = molecular target: Gal(b1-4)GlcNAc(b1-6)[Gal(b1-3)]GalNAc
# Summary of the method: as §1
# Gal3S(b1-3)GalNAc = molecular target: Gal3S(b1-3)GalNAc
# Summary of the method: as §1
# Gal3S(b1-3)GlcNAc = molecular target: Gal3S(b1-3)GlcNAc
# Summary of the method: as §1
# [6] = molecular target: Gal3S(b1-3)[Fuc(a1-4)]GlcNAc
# Summary of the method: as §1
# Gal3S(b1-4)Glc = molecular target: Gal3S(b1-4)Glc
# Summary of the method: as §1
# Gal3S(b1-4)Glc6S = molecular target: Gal3S(b1-4)Glc6S
# Summary of the method: as §1
# Gal3S(b1-4)GlcNAc = molecular target: Gal3S(b1-4)GlcNAc
# Summary of the method: as §1
# Gal3S(b1-4)GlcNAc6S = molecular target: Gal3S(b1-4)GlcNAc6S
# Summary of the method: as §1
# [7] = molecular target: Gal3S(b1-4)[Fuc(a1-3)]Glc
# Summary of the method: as §1
# Gal3S4S(b1-4)GlcNAc = molecular target: Gal3S4S(b1-4)GlcNAc
# Summary of the method: as §1
# Gal3S6S(b1-4)GlcNAc = molecular target: Gal3S6S(b1-4)GlcNAc
# Summary of the method: as §1
# Gal3S6S(b1-4)GlcNAc6S = molecular target: Gal3S6S(b1-4)GlcNAc6S
# Summary of the method: as §1
# Gal4S(b1-4)GlcNAc = molecular target: Gal4S(b1-4)GlcNAc
# Summary of the method: as §1
# Gal4S6S(b1-4)GlcNAc = molecular target: Gal4S6S(b1-4)GlcNAc
# Summary of the method: as §1
# Gal6S(b1-4)Glc = molecular target: Gal6S(b1-4)Glc
# Summary of the method: as §1
# Gal6S(b1-4)Glc6S = molecular target: Gal6S(b1-4)Glc6S
# Summary of the method: as §1
# Gal6S(b1-4)GlcNAc = molecular target: Gal6S(b1-4)GlcNAc
# Summary of the method: as §1
# Gal6S(b1-4)GlcNAc6S = molecular target: Gal6S(b1-4)GlcNAc6S
# Summary of the method: as §1
# GalNAc(a1-3)Gal = molecular target: GalNAc(a1-3)Gal
# Summary of the method: as §1
# GalNAc(a1-3)GalNAc = molecular target: GalNAc(a1-3)GalNAc
# Summary of the method: as §1
# GalNAc(b1-3)Gal = molecular target: GalNAc(b1-3)Gal
# Summary of the method: as §1
# [8] = molecular target: GalNAc(b1-3)Gal(a1-4)Gal(b1-4)GlcNAc
# Summary of the method: as §1
# [9] = molecular target: GalNAc(b1-3)Gal(a1-4)Gal(b1-4)GlcNAc(b1-3)Gal(b1-4)Glc
# Summary of the method: as §1
# GalNAc(b1-3)GalNAc = molecular target: GalNAc(b1-3)GalNAc
# Summary of the method: as §1
# GalNAc(b1-4)GlcNAc = molecular target: GalNAc(b1-4)GlcNAc
# Summary of the method: as §1
# [10] = molecular target: GalNAc(b1-4)GlcNAc(b1-2)Man(a1-3)[GalNAc(b1-4)GlcNAc(b1-2)Man(a1-6)]Man(b1-4)GlcNAc(b1-4)GlcNAc
# Summary of the method: as §1
# Glc(a1-4)Glc = molecular target: Glc(a1-4)Glc
# Summary of the method: as §1
# Glc(a1-6)Glc(a1-6)Glc = molecular target: Glc(a1-6)Glc(a1-6)Glc
# Summary of the method: as §1
# Glc(b1-4)Glc = molecular target: Glc(b1-4)Glc
# Summary of the method: as §1
# Glc(b1-6)Glc = molecular target: Glc(b1-6)Glc
# Summary of the method: as §1
# GlcA(b1-3)Gal = molecular target: GlcA(b1-3)Gal
# Summary of the method: as §1
# GlcA(b1-3)GlcNAc = molecular target: GlcA(b1-3)GlcNAc
# Summary of the method: as §1
# GlcA(b1-6)Gal = molecular target: GlcA(b1-6)Gal
# Summary of the method: as §1
# [11] = molecular target: GlcNAc(a1-3)Gal(b1-4)GlcNAc
# Summary of the method: as §1
# [12] = molecular target: GlcNAc(a1-4)Gal(b1-3)GlcNAc
# Summary of the method: as §1
# [13] = molecular target: GlcNAc(a1-4)Gal(b1-4)GalNAc
# Summary of the method: as §1
# [14] = molecular target: GlcNAc(a1-4)Gal(b1-4)GlcNAc
# Summary of the method: as §1
# [15] = molecular target: GlcNAc(a1-4)Gal(b1-4)GlcNAc(b1-3)Gal(b1-4)Glc
# Summary of the method: as §1
# [16] = molecular target: GlcNAc(a1-4)Gal(b1-4)GlcNAc(b1-3)Gal(b1-4)GlcNAc
# Summary of the method: as §1
# [17] = molecular target: GlcNAc(a1-4)Gal(b1-4)GlcNAc(b1-3)Gal(b1-4)GlcNAc(b1-3)Gal(b1-4)GlcNAc
# Summary of the method: as §1
# [18] = molecular target: GlcNAc(a1-4)Gal(b1-4)GlcNAc(b1-3)Gal(b1-4)[Fuc(a1-3)]GlcNAc(b1-3)Gal(b1-4)[Fuc(a1-3)]GlcNAc
# Summary of the method: as §1
# [19] = molecular target: GlcNAc(a1-6)Gal(b1-4)GlcNAc
# Summary of the method: as §1
# [20] = molecular target: GlcNAc(b1-2)Gal(b1-3)GalNAc
# Summary of the method: as §1
# [21] = molecular target: GlcNAc(b1-2)Man(a1-3)[GlcNAc(b1-2)Man(a1-6)]Man(b1-4)GlcNAc(b1-4)GlcNAc
# Summary of the method: as §1
# [22] = molecular target: GlcNAc(b1-2)Man(a1-3)[GlcNAc(b1-2)Man(a1-6)]Man(b1-4)GlcNAc(b1-4)[Fuc(a1-6)]GlcNAc
# Summary of the method: as §1
# GlcNAc(b1-3)Gal = molecular target: GlcNAc(b1-3)Gal
# Summary of the method: as §1
# [23] = molecular target: GlcNAc(b1-3)Gal(b1-3)GalNAc
# Summary of the method: as §1
# GlcNAc(b1-3)Gal(b1-4)Glc = molecular target: GlcNAc(b1-3)Gal(b1-4)Glc
# Summary of the method: as §1
# [24] = molecular target: GlcNAc(b1-3)Gal(b1-4)GlcNAc
# Summary of the method: as §1
# [25] = molecular target: GlcNAc(b1-3)Gal(b1-4)GlcNAc(b1-3)Gal(b1-4)GlcNAc
# Summary of the method: as §1
# GlcNAc(b1-3)GalNAc = molecular target: GlcNAc(b1-3)GalNAc
# Summary of the method: as §1
# GlcNAc(b1-3)Man = molecular target: GlcNAc(b1-3)Man
# Summary of the method: as §1
# [26] = molecular target: GlcNAc(b1-3)[GlcNAc(b1-4)][GlcNAc(b1-6)]GlcNAc
# Summary of the method: as §1
# [27] = molecular target: GlcNAc(b1-3)[GlcNAc(b1-6)]Gal(b1-4)GlcNAc
# Summary of the method: as §1
# [28] = molecular target: GlcNAc(b1-3)[GlcNAc(b1-6)]GalNAc
# Summary of the method: as §1
# [29] = molecular target: GlcNAc(b1-4)Gal(b1-4)GlcNAc
# Summary of the method: as §1
binder,measurement,setting,value
B1,glycan array binding signal (z-score),[1],0.116
same,glycan array binding signal (z-score),[2],-0.499
same,glycan array binding signal (z-score),[3],-0.211
same,glycan array binding signal (z-score),[4],-0.467
same,glycan array binding signal (z-score),[5],-0.26
same,glycan array binding signal (z-score),Gal3S(b1-3)GalNAc,-0.567
same,glycan array binding signal (z-score),Gal3S(b1-3)GlcNAc,-0.228
same,glycan array binding signal (z-score),[6],-0.553
same,glycan array binding signal (z-score),Gal3S(b1-4)Glc,-0.25
same,glycan array binding signal (z-score),Gal3S(b1-4)Glc6S,0.098
same,glycan array binding signal (z-score),Gal3S(b1-4)GlcNAc,-0.016
same,glycan array binding signal (z-score),Gal3S(b1-4)GlcNAc6S,0.248
same,glycan array binding signal (z-score),[7],0.04
same,glycan array binding signal (z-score),Gal3S4S(b1-4)GlcNAc,-0.635
same,glycan array binding signal (z-score),Gal3S6S(b1-4)GlcNAc,-0.152
same,glycan array binding signal (z-score),Gal3S6S(b1-4)GlcNAc6S,1.12
same,glycan array binding signal (z-score),Gal4S(b1-4)GlcNAc,-0.661
same,glycan array binding signal (z-score),Gal4S6S(b1-4)GlcNAc,0.765
same,glycan array binding signal (z-score),Gal6S(b1-4)Glc,-0.342
same,glycan array binding signal (z-score),Gal6S(b1-4)Glc6S,0.513
same,glycan array binding signal (z-score),Gal6S(b1-4)GlcNAc,-0.619
same,glycan array binding signal (z-score),Gal6S(b1-4)GlcNAc6S,0.552
same,glycan array binding signal (z-score),GalNAc(a1-3)Gal,0
same,glycan array binding signal (z-score),GalNAc(a1-3)GalNAc,-0.501
same,glycan array binding signal (z-score),GalNAc(b1-3)Gal,-0.591
same,glycan array binding signal (z-score),[8],-0.421
same,glycan array binding signal (z-score),[9],0.072
same,glycan array binding signal (z-score),GalNAc(b1-3)GalNAc,-0.52
same,glycan array binding signal (z-score),GalNAc(b1-4)GlcNAc,-0.453
same,glycan array binding signal (z-score),[10],-0.622
same,glycan array binding signal (z-score),Glc(a1-4)Glc,-0.339
same,glycan array binding signal (z-score),Glc(a1-6)Glc(a1-6)Glc,-0.616
same,glycan array binding signal (z-score),Glc(b1-4)Glc,-0.344
same,glycan array binding signal (z-score),Glc(b1-6)Glc,-0.416
same,glycan array binding signal (z-score),GlcA(b1-3)Gal,-0.625
same,glycan array binding signal (z-score),GlcA(b1-3)GlcNAc,-0.465
same,glycan array binding signal (z-score),GlcA(b1-6)Gal,-0.085
same,glycan array binding signal (z-score),[11],-0.392
same,glycan array binding signal (z-score),[12],-0.238
same,glycan array binding signal (z-score),[13],0.038
same,glycan array binding signal (z-score),[14],-0.669
same,glycan array binding signal (z-score),[15],-0.574
same,glycan array binding signal (z-score),[16],-0.648
same,glycan array binding signal (z-score),[17],1.56
same,glycan array binding signal (z-score),[18],0.255
same,glycan array binding signal (z-score),[19],-0.128
same,glycan array binding signal (z-score),[20],-0.639
same,glycan array binding signal (z-score),[21],-0.228
same,glycan array binding signal (z-score),[22],-0.267
same,glycan array binding signal (z-score),GlcNAc(b1-3)Gal,-0.629
same,glycan array binding signal (z-score),[23],-0.682
same,glycan array binding signal (z-score),GlcNAc(b1-3)Gal(b1-4)Glc,-0.495
same,glycan array binding signal (z-score),[24],-0.517
same,glycan array binding signal (z-score),[25],0.631
same,glycan array binding signal (z-score),GlcNAc(b1-3)GalNAc,-0.471
same,glycan array binding signal (z-score),GlcNAc(b1-3)Man,-0.245
same,glycan array binding signal (z-score),[26],-0.57
same,glycan array binding signal (z-score),[27],-0.537
same,glycan array binding signal (z-score),[28],-0.499
same,glycan array binding signal (z-score),[29],-0.314
